From publication PMC3006024
No constants are given. Whether binding was seen depends on the method and setting. In cells and extracts the contact can be indirect. Some results given as binding are weak or reduced against the parent protein; the word gives no strength.

Sequences of proteins named here, by UniProt entry; tags and fusion partners are left off.
UniProt P20263: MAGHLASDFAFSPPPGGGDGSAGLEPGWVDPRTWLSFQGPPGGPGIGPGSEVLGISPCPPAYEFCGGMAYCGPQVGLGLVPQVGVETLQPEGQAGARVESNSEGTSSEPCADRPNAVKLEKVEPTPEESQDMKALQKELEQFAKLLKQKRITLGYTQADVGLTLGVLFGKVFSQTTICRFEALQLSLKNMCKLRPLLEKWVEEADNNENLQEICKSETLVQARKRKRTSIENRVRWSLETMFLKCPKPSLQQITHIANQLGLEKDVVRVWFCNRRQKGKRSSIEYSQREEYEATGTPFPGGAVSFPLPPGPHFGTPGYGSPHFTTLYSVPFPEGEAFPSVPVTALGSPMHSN
UniProt P48432: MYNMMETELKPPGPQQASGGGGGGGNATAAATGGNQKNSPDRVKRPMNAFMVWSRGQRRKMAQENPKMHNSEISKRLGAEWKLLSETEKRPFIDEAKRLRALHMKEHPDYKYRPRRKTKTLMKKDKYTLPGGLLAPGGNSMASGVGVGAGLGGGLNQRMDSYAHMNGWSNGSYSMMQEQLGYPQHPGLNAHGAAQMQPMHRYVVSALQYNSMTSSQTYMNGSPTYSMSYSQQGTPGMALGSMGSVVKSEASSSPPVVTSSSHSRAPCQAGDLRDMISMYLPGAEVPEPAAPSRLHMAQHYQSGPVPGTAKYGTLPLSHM
UniProt Q61937: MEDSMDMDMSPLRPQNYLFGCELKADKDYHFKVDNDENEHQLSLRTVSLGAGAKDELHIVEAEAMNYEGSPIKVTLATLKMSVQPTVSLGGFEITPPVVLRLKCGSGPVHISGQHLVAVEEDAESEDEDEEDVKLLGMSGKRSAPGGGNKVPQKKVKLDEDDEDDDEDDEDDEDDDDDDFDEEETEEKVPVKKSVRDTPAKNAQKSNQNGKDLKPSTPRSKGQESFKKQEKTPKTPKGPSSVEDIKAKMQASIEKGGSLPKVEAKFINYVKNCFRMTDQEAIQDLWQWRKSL

T1: Nanog (mouse (endogenous in R1 ES cells)) (UniProt Q80Z64)
T1 sequence: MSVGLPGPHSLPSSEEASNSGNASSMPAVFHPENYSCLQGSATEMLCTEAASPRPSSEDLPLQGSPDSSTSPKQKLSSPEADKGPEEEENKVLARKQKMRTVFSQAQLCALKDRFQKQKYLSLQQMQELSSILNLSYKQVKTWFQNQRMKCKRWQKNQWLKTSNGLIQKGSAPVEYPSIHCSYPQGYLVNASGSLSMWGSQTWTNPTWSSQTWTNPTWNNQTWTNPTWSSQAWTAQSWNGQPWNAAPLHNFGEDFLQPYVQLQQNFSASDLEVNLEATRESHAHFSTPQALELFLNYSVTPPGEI


Tests used:
[1] = molecular target: Oct4 (mouse (endogenous in R1 ES cells)) (UniProt P20263); test: proximity ligation; in situ PLA (Duolink) on fixed, permeabilised murine R1 ES cells with two primary antibodies against the endogenous proteins; confocal microscopy; signal needs less than 40 nm between the antibodies; interphase and mitotic cells; for Npm1/Sox2 also after 24 h of LIF withdrawal, 2% dimethyl sulfoxide or 2.0 uM retinoic acid
[2] = molecular target: Sox2 (mouse (endogenous in R1 ES cells)) (UniProt P48432); test: proximity ligation; in situ PLA on ES cells with another set of antibodies (anti-Sox2 MAB2018, R&D Systems; anti-Npm1 ab15440, abcam); data not shown
[3] = molecular target: Sox2 (mouse (endogenous in R1 ES cells)) (UniProt P48432); test: co-IP; anti-Sox2 (ab15830) cross-linked to Dynabeads Protein G, about 0.2 mg whole cell extract of ES cells overnight at 4°C; eluted with 1 M NaCl, then 0.1 M citrate; Western blot with anti-Npm1
[4] = molecular target: T1, Nanog (mouse (endogenous in R1 ES cells)); test: proximity ligation; in situ PLA (Duolink) on fixed, permeabilised murine R1 ES cells with two primary antibodies against the endogenous proteins; confocal microscopy; signal needs less than 40 nm between the antibodies; interphase and mitotic cells; for Npm1/Sox2 also after 24 h of LIF withdrawal, 2% dimethyl sulfoxide or 2.0 uM retinoic acid
[5] = molecular target: Sox2 (mouse (endogenous in R1 ES cells)) (UniProt P48432); test: as above

Row | Molecule | binding [1] | binding [2] | binding [3] | binding [4] | binding [5]
1 | Npm1 phosphorylated at residue T198 (from UniProt Q61937 1-292) | binds | – | – | – | –
2 | Nucleophosmin/nucleoplasmin family member 1 (Npm1) (from UniProt Q61937 1-292) | binds | binds | binds | binds | binds
3 | translationally controlled tumor protein (Tpt1) (protein, UniProt P63028 1-172) MIIYRDLISHDELFSDIYKIREIADGLCLEVEGKMVSRTEGAIDDSLIGGNASAEGPEGEGTESTVVTGVDIVMNHHLQETSFTKEAYKKYIKDYMKSLKGKLEEQKPERVKPFMTGAAEQIKHILANFNNYQFFIGENMNPDGMVALLDYREDGVTPFMIFFKDGLEMEKC | binds | – | – | no binding | no binding
